From PubChem BioAssay AID504333 (National Center for Advancing Translational Sciences (NCATS), 2011)
Out of some 360,000 compounds screened, about 16,000 (4.4%) were called active. Inconclusive results, whose numbers are uncertain, are shown with a selection of clear calls. Calls follow the shape of the dose curve; as a rule, active = well fitted inhibition curve with a large enough effect; inconclusive = small, poorly fitted or top-dose-only effect; inactive = no such curve, though single readings can be large or run the other way. A potency beside an inconclusive call is a rough fit, not a confirmed value.

Molecular target: Bromodomain adjacent to zinc finger domain protein 2B (Homo sapiens) (UniProt Q9UIF8)
Sequence of UniProt Q9UIF8 (Q9UIF8 whole entry, looked up, the tested form may be a part): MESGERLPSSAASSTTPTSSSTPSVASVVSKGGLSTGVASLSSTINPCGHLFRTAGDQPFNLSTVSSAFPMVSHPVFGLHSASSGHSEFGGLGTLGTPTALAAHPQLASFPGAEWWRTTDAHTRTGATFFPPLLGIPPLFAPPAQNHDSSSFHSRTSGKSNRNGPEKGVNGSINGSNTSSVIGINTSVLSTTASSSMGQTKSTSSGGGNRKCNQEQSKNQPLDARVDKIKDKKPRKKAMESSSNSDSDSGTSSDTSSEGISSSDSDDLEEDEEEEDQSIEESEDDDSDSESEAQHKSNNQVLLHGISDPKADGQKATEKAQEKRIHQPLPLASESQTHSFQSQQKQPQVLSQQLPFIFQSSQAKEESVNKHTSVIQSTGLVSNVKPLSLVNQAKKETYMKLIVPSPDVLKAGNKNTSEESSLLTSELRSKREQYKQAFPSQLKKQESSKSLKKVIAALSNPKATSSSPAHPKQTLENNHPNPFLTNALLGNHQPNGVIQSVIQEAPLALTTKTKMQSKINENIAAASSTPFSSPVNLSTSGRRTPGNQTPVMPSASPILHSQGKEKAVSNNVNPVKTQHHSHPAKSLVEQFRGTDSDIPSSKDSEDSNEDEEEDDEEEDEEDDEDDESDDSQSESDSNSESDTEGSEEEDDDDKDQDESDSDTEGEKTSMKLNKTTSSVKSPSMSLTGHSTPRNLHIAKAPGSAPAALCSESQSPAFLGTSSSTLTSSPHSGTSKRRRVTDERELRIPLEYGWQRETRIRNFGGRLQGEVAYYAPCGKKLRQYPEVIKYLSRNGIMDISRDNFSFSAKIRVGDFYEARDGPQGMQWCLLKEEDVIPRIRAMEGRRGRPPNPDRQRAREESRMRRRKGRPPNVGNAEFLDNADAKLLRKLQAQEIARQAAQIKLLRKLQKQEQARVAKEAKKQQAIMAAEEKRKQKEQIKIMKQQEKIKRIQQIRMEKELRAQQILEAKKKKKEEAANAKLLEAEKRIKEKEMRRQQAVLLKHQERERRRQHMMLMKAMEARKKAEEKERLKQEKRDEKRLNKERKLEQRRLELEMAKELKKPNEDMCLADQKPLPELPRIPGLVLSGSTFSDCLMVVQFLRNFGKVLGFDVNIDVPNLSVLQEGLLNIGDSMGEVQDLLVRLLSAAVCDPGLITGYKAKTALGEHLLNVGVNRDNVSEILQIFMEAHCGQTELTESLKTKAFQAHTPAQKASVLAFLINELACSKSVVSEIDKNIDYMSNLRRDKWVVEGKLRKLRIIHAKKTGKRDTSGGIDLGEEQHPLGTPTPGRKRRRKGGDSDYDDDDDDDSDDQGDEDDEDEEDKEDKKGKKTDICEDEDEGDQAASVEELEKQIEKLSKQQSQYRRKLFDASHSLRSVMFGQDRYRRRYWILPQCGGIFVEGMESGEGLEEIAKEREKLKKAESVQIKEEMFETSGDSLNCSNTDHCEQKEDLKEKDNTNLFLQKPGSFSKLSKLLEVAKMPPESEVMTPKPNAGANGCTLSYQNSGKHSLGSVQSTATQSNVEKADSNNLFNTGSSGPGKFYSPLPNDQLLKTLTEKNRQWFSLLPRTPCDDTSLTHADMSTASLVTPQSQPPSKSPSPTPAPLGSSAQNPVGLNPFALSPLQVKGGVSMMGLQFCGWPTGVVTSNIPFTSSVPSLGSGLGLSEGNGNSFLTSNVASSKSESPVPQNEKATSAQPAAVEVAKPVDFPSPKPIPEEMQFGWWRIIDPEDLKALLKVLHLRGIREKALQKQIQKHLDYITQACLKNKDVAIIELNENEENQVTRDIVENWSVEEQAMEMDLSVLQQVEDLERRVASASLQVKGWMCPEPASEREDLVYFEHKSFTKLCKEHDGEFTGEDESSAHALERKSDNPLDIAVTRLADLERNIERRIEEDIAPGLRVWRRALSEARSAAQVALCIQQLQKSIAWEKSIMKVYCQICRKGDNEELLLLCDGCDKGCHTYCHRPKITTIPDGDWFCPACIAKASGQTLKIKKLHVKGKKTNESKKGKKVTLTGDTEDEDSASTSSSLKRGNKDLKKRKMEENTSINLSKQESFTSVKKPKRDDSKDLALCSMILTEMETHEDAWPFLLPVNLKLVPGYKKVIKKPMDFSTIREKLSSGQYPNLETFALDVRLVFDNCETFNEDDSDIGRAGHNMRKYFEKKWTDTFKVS
Experiment: qHTS Assay for Inhibitors of BAZ2B; also: nearly all actives have a fitted effect of over 60% in size
Details: AlphaScreen BAZ2B-H3K14Ac peptide displacement; activity change, negative = inhibition: at 114 µM (top of the series) unless noted
Procedure, shortened: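 AlphaScreen displacement of biotin-H3(5-23)K14Ac peptide (50 nM final) from BAZ2B (50 nM final) in PBS pH 7.4, 0.01% Tween-20; complex preformed 30 min RT, then compounds (top 110 uM) 30 min RT, beads 20 min dark.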
% is scaled to controls: 0 for no effect and ±100 for the full control effect; potency is read from the fitted curve at half-maximal effect; tags tell the direction and shape of the fitted curve.

Compound | activity change, negative = inhibition | Potency
O=C(N/C(=C\c1cccc(Br)c1)C(=O)N1CCOCC1)c1ccco1 | inactive: -2.5% | –
COc1cc(OC)cc(C(=O)Oc2c(CN3CCOCC3)cc(Cl)c3cccnc23)c1 | – | active: 22.4 µM
CC1CCCCN1C(=O)COc1ccc(F)cc1 (stereo unspecified) | – | inconclusive: 89.1 µM [inhibitor, single point]
CCc1ccc[n+](-c2[nH]c(=O)sc2/C=N/N=C(\[O-])c2cccnc2)c1 | – | inconclusive: 79.4 µM [inhibitor, partial curve]
Cc1nc(Nc2ccc(Cl)cc2)cc(-c2ccccc2)n1 | inactive: 23.1% | –
Cc1cc(C(=O)CSc2nnc(-c3ccco3)o2)c(C)n1Cc1ccco1 | – | inconclusive: 50.1 µM [inhibitor, partial curve]
COc1ccc(-n2ccc(=O)c(C(=O)Nc3ccc(S(=O)(=O)Nc4nccs4)cc3)n2)cc1 | – | inconclusive: 31.6 µM [inhibitor, single point]
O/N=C1\CCCc2ccc3ccccc3c21 | – | inconclusive: 89.1 µM [inhibitor, single point]
Cc1cnc(C(=O)NCCc2ccc(Cl)cc2)cn1 | – | inconclusive: 50.1 µM [inhibitor, partial curve]
Cc1cccc(Nc2nnc(-c3ccc(C(=O)N4C[C@H]5C[C@H](C4)c4cccc(=O)n4C5)cc3)c3ccccc23)c1 | – | inconclusive: 56.2 µM [inhibitor, partial curve]
O=C(Cn1c(=O)oc2cc(S(=O)(=O)N3CCCCCC3)ccc21)NCc1ccccc1Cl | inactive: -12.5% | –
CN1C(=O)c2cccc3c(N(C)C)ccc(c23)C1=O | inactive: 23.7% | –
C[N+]1(CCCCSc2ccc(O)cc2)CCCCC1 | – | inconclusive: 89.1 µM [inhibitor, single point]
Cn1ccc2cc3c(cc21)CCN3C(=O)Nc1cccnc1 | – | inconclusive: 79.4 µM [inhibitor, single point]
Cc1cccc(-n2c(C)cc(/C=N/NC(=O)c3cccc([N+](=O)[O-])c3C)c2C)c1 | – | inconclusive: 44.7 µM [inhibitor, partial curve]
O=C(c1ccc(CS(=O)(=O)c2ccccc2)o1)N1CCN(c2ccccc2)CC1 | – | active: 56.2 µM
CC(=O)Nc1ccc(C(=O)CCl)cc1 | – | inconclusive: 89.1 µM [inhibitor, single point]
COc1cccc(/C=C2\Oc3cc(OCC(=O)N4Cc5ccccc5C[C@H]4C(=O)O)ccc3C2=O)c1 | – | inconclusive: 70.8 µM [inhibitor, single point]
COc1cccc(N2CCN(c3ccc4nnc(CCC(=O)Nc5ccccn5)n4n3)CC2)c1 | – | inconclusive: 79.4 µM [inhibitor, single point]
CCS(=O)(=O)c1ncc(Cl)c(C(=O)Nc2ccc(C)cc2)n1 | – | inconclusive: 89.1 µM [inhibitor, single point]
CCN(CC)c1ccc(-n2c(C)cc(C=O)c2C)cc1 | – | inconclusive: 44.7 µM [inhibitor, single point]
O=C(N/N=C/c1ccc[nH]1)c1ccncc1 | – | inconclusive: 89.1 µM [inhibitor, single point]
Nc1ccc2nc(-c3cccc(-c4nc5ccc(N)cc5[nH]4)n3)[nH]c2c1 | – | active: 25.1 µM
N#Cc1nc(Cc2ccccc2)oc1N1CCC(Cc2ccccc2)CC1 | – | inconclusive: 7.94 µM [inhibitor, full curve]

Compound | activity change, negative = inhibition | Potency
O=C(CN1C(=O)NC2(CCCC2)C1=O)OCCOc1ccc(Cl)cc1 | inactive: 1.52% | –
Cc1ccc(C)c2c1cc(C)c1nnc(SCC(=O)c3cccs3)n12 | inactive: 1.31% | –
COc1c(O)cccc1/C=N/NC(=O)Cn1ccnc1C | – | inconclusive: 89.1 µM [inhibitor, single point]
Cc1cc(NC(=O)CCS(=O)(=O)c2cc(Br)cc3c2N(C(=O)C2CC2)CC3)ccc1Br | inactive: 0.683% | –
COc1cccc(NC(C)C(=O)Nc2cc([N+](=O)[O-])ccc2Cl)c1 (stereo unspecified) | – | inconclusive: 50.1 µM [inhibitor, partial curve]
CCCS(=O)(=O)N1CCN(Cc2ccccc2C(F)(F)F)CC1 | inactive: -111% | –
COc1ccc(C(=O)/C=C/c2cc(C(=O)O)cc3c2OCOC3)c(O)c1 | – | inconclusive: 79.4 µM [inhibitor, partial curve]
Cc1ccc(CNC(=O)CSc2nc3[nH]ncc3c(=O)[nH]2)cc1 | inactive: 12.2% | –
CC(C)CNc1oc(-c2ccccc2Cl)nc1C#N | – | inconclusive: 14.1 µM [inhibitor, partial curve]
COc1cccc(C(=O)N2CCN(C3CCN(Cc4ccccc4)CC3)CC2)c1 | – | active: 28.2 µM
Cc1ccc(S(=O)(=O)N(C)CC(=O)Nc2ccccc2N2CCCC2)cc1 | – | inconclusive: 89.1 µM [inhibitor, single point]
Cc1c(Br)ccc(NC(=O)Cn2nc(-c3cccs3)ccc2=O)c1C | – | inconclusive: 79.4 µM [inhibitor, single point]
Fc1ccc(N2CCN(c3ncnc4nc[nH]c34)CC2)cc1 | – | inconclusive: 89.1 µM [inhibitor, single point]
Clc1ccc(C2Nc3cccc4cccc(c34)N2)cc1 | – | inconclusive: 70.8 µM [inhibitor, single point]
CCn1cnc2cc(NCc3ccc(Br)cc3)ccc21 | – | active: 44.7 µM
CCn1c2ccccc2c2cc(CN3CCN(Cc4ccccc4Cl)CC3)ccc21 | – | active: 50.1 µM
O=S(=O)(Nc1ccc2nc(-c3ccco3)[nH]c2c1)c1ccccc1 | – | inconclusive: 50.1 µM [inhibitor, partial curve]
COc1cc(OC)c(NC2(c3ccccc3)C(=O)c3ccccc3C2=O)cc1Cl | – | active: 22.4 µM
COc1cccc(C(c2nnnn2CC2CCCO2)N2CCN(C(=O)c3ccco3)CC2)c1OC (stereo unspecified) | – | inconclusive: 89.1 µM [inhibitor, single point]
CCCOc1ccc(-c2c(C(=O)N/N=C(\C)c3ccncc3)nnn2-c2nonc2N)cc1 | – | inconclusive: 70.8 µM [inhibitor, single point]
O=C(Nc1ccc(OC(F)(F)F)cc1)c1nc2ccccc2nc1N1CCCCC1 | – | inconclusive: 17.8 µM [inhibitor, single point]
Cc1nnc(Sc2cc(C(=O)NCc3ccco3)c3ccccc3n2)s1 | – | inconclusive: 89.1 µM [inhibitor, single point]
Cc1ccc(-n2c(C)cc(/C=N/NC(=O)CC3(C)OCCO3)c2C)c(C)c1 | – | inconclusive: 89.1 µM [inhibitor, single point]
COC(=O)c1ccccc1NC(=O)c1ccc2nccnc2c1 | – | inconclusive: 39.8 µM [inhibitor, partial curve]

Compound | activity change, negative = inhibition | Potency
CCc1ccccc1NC(=O)Nc1ccc2c(c1)N(CC)C(=O)c1ccccc1S2 | inactive: -18.4% | –
CC(C)Oc1cccc(C(=O)Nc2ncn[nH]2)c1 | – | active: 50.1 µM
N=C(N)SCc1ncccc1O | – | inconclusive: 79.4 µM [inhibitor, single point]
CCOc1ccccc1CNC(=O)c1cc2n(n1)CCCN(Cc1ccc(C)cc1)C2=O | inactive: -10.7% | –
O=[N+]([O-])c1ccc(N2N=C(c3ccco3)CC2c2ccccc2)cc1 (stereo unspecified) | – | inconclusive: 44.7 µM [inhibitor, partial curve]
O=C1CC(c2cccc(O)c2)c2c(nc(SCc3ccccc3F)[nH]c2=O)N1 (stereo unspecified) | – | inconclusive: 79.4 µM [inhibitor, single point]
CCN(C(=O)c1coc(=O)c(Br)c1)c1ccc2c(c1)OCO2 | – | active: 50.1 µM
CCCN1C(=O)/C(=N\OCC(=O)NC23CC4CC(CC(C4)C2)C3)c2ccccc21 | – | inconclusive: 79.4 µM [inhibitor, single point]
O=C(O)CP(=O)(O)O | – | inconclusive: 100 µM [inhibitor, partial curve]
CCC(C)C(NC(=O)C1CCC(C)CC1)C(=O)NCc1ccccn1 (stereo unspecified) | – | inconclusive: 5.01 µM [inhibitor, full curve]
CCOc1ccc(C(=O)N/N=C/c2ccc(-c3ccc(S(=O)(=O)Nc4ncccn4)cc3)o2)cc1 | – | active: 79.4 µM
COc1ccc(C2C=C(c3ccccc3)Nc3nc(CCCO)nn32)cc1 (stereo unspecified) | inactive: 5.51% | –
O=C(O)CSc1nnc(CNc2ccc(F)cc2)n1-c1ccccc1 | – | active: 79.4 µM
COc1ccc(OCCOCCN2CCc3ccccc3C2)cc1 | – | active: 50.1 µM
COc1ccc(CCN2CC(C(=O)NCc3ccco3)CC2=O)cc1OC (stereo unspecified) | – | inconclusive: 0.708 µM [inhibitor, full curve, poor fit]
O=[N+]([O-])c1ccccc1/C=N\N1CCN(Cc2ccccc2Cl)CC1 | – | active: 28.2 µM
C[C@H](NC(=O)OC(C)(C)C)c1nnc(SCc2c(F)cccc2Cl)o1 | – | active: 89.1 µM
COc1ccc(/C(C)=N/NC(=O)c2nnn(-c3nonc3N)c2-c2ccccc2)cc1 | – | inconclusive: 79.4 µM [inhibitor, single point]
O=C(c1ccc(-c2ccccc2Cl)o1)N1CCN(c2ccccc2O)CC1 | – | inconclusive: 44.7 µM [inhibitor, partial curve]
COC(=O)CCC(=O)OC1(C)C(=O)C2=COC(c3ccc(OC)cc3)=CC2=C(Br)C1=O (stereo unspecified) | – | active: 44.7 µM
CCc1nc(SCC(=O)Nc2nnc(CC)s2)c2c(=O)n(C)c(=O)n(C)c2n1 | inactive: -2.91% | –
CCCn1c2ccccc2c2cnn(CC(=O)N(C)c3ccccc3CC)c(=O)c21 | – | inconclusive: 79.4 µM [inhibitor, single point]
O=[N+]([O-])c1cc(CN(CCO)CCO)ccc1O | – | inconclusive: 79.4 µM [inhibitor, single point]
